31 molecules from paper PMC9911399, “Two distinct binding modes provide the RNA-binding protein RbFox with extraordinary sequence specificity” can be followed below.

Substitutions are numbered along the chain they refer to; changes in the protein carry UniProt numbers. The list shows a part of the results.

B1: GGGCUCA (DNA:RNA)
RNA: GGGAGACCGGAAUUCAGAUUGUCCGGGCUCAUUAAAUCCCGUCGUAGCCACCA
DNA 1: CAATCTGAATTCCGGTCTCCC
DNA 2: TGGTGGCTACGACGGGATT
B2: GUUGACU (DNA:RNA)
RNA: B1 RNA with G26U, G27U, C28G, U29A, A31U
DNA 1: CAATCTGAATTCCGGTCTCCC
DNA 2: TGGTGGCTACGACGGGATT
B3: CUUCAUA (DNA:RNA)
RNA: B1 RNA with G25C, G26U, G27U, U29A, C30U
DNA 1: CAATCTGAATTCCGGTCTCCC
DNA 2: TGGTGGCTACGACGGGATT
B4: CAUCCCC (DNA:RNA)
RNA: B1 RNA with G25C, G26A, G27U, U29C, A31C
DNA 1: CAATCTGAATTCCGGTCTCCC
DNA 2: TGGTGGCTACGACGGGATT
B5: GGACGUG (DNA:RNA)
RNA: B1 RNA with G27A, U29G, C30U, A31G
DNA 1: CAATCTGAATTCCGGTCTCCC
DNA 2: TGGTGGCTACGACGGGATT
B6: CGUAGUG (DNA:RNA)
RNA: B1 RNA with G25C, G27U, C28A, U29G, C30U, A31G
DNA 1: CAATCTGAATTCCGGTCTCCC
DNA 2: TGGTGGCTACGACGGGATT
B7: UACAUGU (DNA:RNA)
RNA: B1 RNA with G25U, G26A, G27C, C28A, C30G, A31U
DNA 1: CAATCTGAATTCCGGTCTCCC
DNA 2: TGGTGGCTACGACGGGATT
B8: UUGGUUC (DNA:RNA)
RNA: B1 RNA with G25U, G26U, C28G, C30U, A31C
DNA 1: CAATCTGAATTCCGGTCTCCC
DNA 2: TGGTGGCTACGACGGGATT
B9: AGGUCUU (DNA:RNA)
RNA: B1 RNA with G25A, C28U, U29C, C30U, A31U
DNA 1: CAATCTGAATTCCGGTCTCCC
DNA 2: TGGTGGCTACGACGGGATT
B10: AUGAUAU (DNA:RNA)
RNA: B1 RNA with G25A, G26U, C28A, C30A, A31U
DNA 1: CAATCTGAATTCCGGTCTCCC
DNA 2: TGGTGGCTACGACGGGATT
B11: UUCCAAG (DNA:RNA)
RNA: B1 RNA with G25U, G26U, G27C, U29A, C30A, A31G
DNA 1: CAATCTGAATTCCGGTCTCCC
DNA 2: TGGTGGCTACGACGGGATT
B12: AGCAGCA (DNA:RNA)
RNA: B1 RNA with G25A, G27C, C28A, U29G
DNA 1: CAATCTGAATTCCGGTCTCCC
DNA 2: TGGTGGCTACGACGGGATT
B13: UGCCUGC (DNA:RNA)
RNA: B1 RNA with G25U, G27C, C30G, A31C
DNA 1: CAATCTGAATTCCGGTCTCCC
DNA 2: TGGTGGCTACGACGGGATT
B14: UGAAGUU (DNA:RNA)
RNA: B1 RNA with G25U, G27A, C28A, U29G, C30U, A31U
DNA 1: CAATCTGAATTCCGGTCTCCC
DNA 2: TGGTGGCTACGACGGGATT
B15: CACCACU (DNA:RNA)
RNA: B1 RNA with G25C, G26A, G27C, U29A, A31U
DNA 1: CAATCTGAATTCCGGTCTCCC
DNA 2: TGGTGGCTACGACGGGATT
B16: CCCGAGU (DNA:RNA)
RNA: GGGAGACCGGAAUUCAGAUUGUCCCCCGAGUUUAAAUCCCGUCGUAGCCACCA
DNA 1: CAATCTGAATTCCGGTCTCCC
DNA 2: TGGTGGCTACGACGGGATT
B17: CUGCUGC (DNA:RNA)
RNA: B1 RNA with G25C, G26U, C30G, A31C
DNA 1: CAATCTGAATTCCGGTCTCCC
DNA 2: TGGTGGCTACGACGGGATT
B18: CUGGGGA (DNA:RNA)
RNA: B16 RNA with C26U, C27G, A29G, U31A
DNA 1: CAATCTGAATTCCGGTCTCCC
DNA 2: TGGTGGCTACGACGGGATT
B19: UAAUCUA (DNA:RNA)
RNA: B1 RNA with G25U, G26A, G27A, C28U, U29C, C30U
DNA 1: CAATCTGAATTCCGGTCTCCC
DNA 2: TGGTGGCTACGACGGGATT
B20: CAUCAGA (DNA:RNA)
RNA: B16 RNA with C26A, C27U, G28C, U31A
DNA 1: CAATCTGAATTCCGGTCTCCC
DNA 2: TGGTGGCTACGACGGGATT
B21: GGUGCAG (DNA:RNA)
RNA: B1 RNA with G27U, C28G, U29C, C30A, A31G
DNA 1: CAATCTGAATTCCGGTCTCCC
DNA 2: TGGTGGCTACGACGGGATT
B22: CGGAGAA (DNA:RNA)
RNA: B1 RNA with G25C, C28A, U29G, C30A
DNA 1: CAATCTGAATTCCGGTCTCCC
DNA 2: TGGTGGCTACGACGGGATT
B23: ACCUGUC (DNA:RNA)
RNA: B16 RNA with C25A, G28U, A29G, G30U, U31C
DNA 1: CAATCTGAATTCCGGTCTCCC
DNA 2: TGGTGGCTACGACGGGATT
B24: CAUAUGG (DNA:RNA)
RNA: B16 RNA with C26A, C27U, G28A, A29U, U31G
DNA 1: CAATCTGAATTCCGGTCTCCC
DNA 2: TGGTGGCTACGACGGGATT
B25: AGACAAC (DNA:RNA)
RNA: B1 RNA with G25A, G27A, U29A, C30A, A31C
DNA 1: CAATCTGAATTCCGGTCTCCC
DNA 2: TGGTGGCTACGACGGGATT
B26: UCAGUCC (DNA:RNA)
RNA: B16 RNA with C25U, C27A, A29U, G30C, U31C
DNA 1: CAATCTGAATTCCGGTCTCCC
DNA 2: TGGTGGCTACGACGGGATT
B27: GAAUUUC (DNA:RNA)
RNA: B1 RNA with G26A, G27A, C28U, C30U, A31C
DNA 1: CAATCTGAATTCCGGTCTCCC
DNA 2: TGGTGGCTACGACGGGATT
B28: GUCCGAA (DNA:RNA)
RNA: B1 RNA with G26U, G27C, U29G, C30A
DNA 1: CAATCTGAATTCCGGTCTCCC
DNA 2: TGGTGGCTACGACGGGATT
B29: CGCCUUA (DNA:RNA)
RNA: B1 RNA with G25C, G27C, C30U
DNA 1: CAATCTGAATTCCGGTCTCCC
DNA 2: TGGTGGCTACGACGGGATT
B30: CGAGUCA (DNA:RNA)
RNA: B1 RNA with G25C, G27A, C28G
DNA 1: CAATCTGAATTCCGGTCTCCC
DNA 2: TGGTGGCTACGACGGGATT
B31: CAUCCUA (DNA:RNA)
RNA: B1 RNA with G25C, G26A, G27U, U29C, C30U
DNA 1: CAATCTGAATTCCGGTCTCCC
DNA 2: TGGTGGCTACGACGGGATT

For this assay, the target named is T1, RBFOX1 RRM (Homo sapiens, UniProt Q9NWB1 109-208).
T1 sequence: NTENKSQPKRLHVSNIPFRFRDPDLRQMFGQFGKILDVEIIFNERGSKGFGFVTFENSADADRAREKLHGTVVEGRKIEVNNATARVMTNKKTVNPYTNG
As to the kind of experiment: EMSA; HiTS-Eq, 1 nM pool, 10 min; buffer printed only for the single-RNA assays: 10 mM Tris pH 7.5, 150 mM NaCl, 3.4 mM EDTA, 0.001% NP-40, 30 C. Particulars: tags: His6 N-terminal (pET28a); label: 5' 32P. Summed up:
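Purified RbFox RRM, wild type or mutant, was incubated for 10 min in 50 µL with 1 nM of a 5′-radiolabelled RNA pool carrying 7 randomized nucleotides, whose flanks were annealed to DNA oligonucleotides, over a series of increasing protein concentrations. Unbound RNA was resolved on 8% native PAGE, cut out, reverse-transcribed, barcoded by PCR and sequenced on an Illumina HiSeq 2500. Relative association constants were derived from changes in read counts for each RNA species versus the control reaction and normalised to the cognate motif.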
On the technique in general: Mobility shift assays separate free from complexed probe on a gel.
Consider B1, for which the binding signal was 0.0218 KA relative to UGCAUGU.

Take B2: the binding signal is 0.0189 KA relative to UGCAUGU.

On to B3, for which the binding signal is 0.00052 KA relative to UGCAUGU.

As for B4, the binding signal was 0.000336 KA relative to UGCAUGU.

Take B5: the binding signal was 0.0184 KA relative to UGCAUGU.

Consider B6, for which the binding signal is 0.0132 KA relative to UGCAUGU.

With B7, the binding signal is 0.0116 KA relative to UGCAUGU.

On to B8, for which the binding signal is 0.0311 KA relative to UGCAUGU.

For B9, the binding signal is 0.00888 KA relative to UGCAUGU.

On to B10, for which the binding signal is 0.00519 KA relative to UGCAUGU.

As to B11, the binding signal is 0.00251 KA relative to UGCAUGU.

As for B12, the binding signal is 0.00978 KA relative to UGCAUGU.

For B13, the binding signal was 0.0698 KA relative to UGCAUGU.

With B14, the binding signal was 0.018 KA relative to UGCAUGU.

As for B15, the binding signal was 0.000304 KA relative to UGCAUGU.

In the case of B16, the binding signal was 0.00379 KA relative to UGCAUGU.

With B17, the binding signal is 0.0217 KA relative to UGCAUGU.

Turning to B18, the binding signal is 0.00858 KA relative to UGCAUGU.

Regarding B19, the binding signal is 0.0051 KA relative to UGCAUGU.

As for B20, the binding signal was 0.00203 KA relative to UGCAUGU.

Turning to B21, the binding signal was 0.0183 KA relative to UGCAUGU.

B22: the binding signal was 0.0182 KA relative to UGCAUGU.

B23: the binding signal is 0.00766 KA relative to UGCAUGU.

On to B24, for which the binding signal was 0.0076 KA relative to UGCAUGU.

As to B25, the binding signal was 0.00477 KA relative to UGCAUGU.

As for B26, the binding signal was 0.00901 KA relative to UGCAUGU.

With B27, the binding signal is 0.0113 KA relative to UGCAUGU.

As for B28, the binding signal is 0.0139 KA relative to UGCAUGU.

Take B29: the binding signal was 0.00453 KA relative to UGCAUGU.

As for B30, the binding signal was 0.0088 KA relative to UGCAUGU.

On to B31, for which the binding signal is 0.00216 KA relative to UGCAUGU.
